Measured values taken from the GPR68 mutational scans of Howard et al. (2025).
The least precise scores are not listed. Not listed are two conditions whose scores span a narrow range. In variant names, del marks residues removed and ins residues inserted between the two positions. For some of these results: How much ogerin was present is not stated here.

B1: GPR68, Q15743 (parent)
chain: MGNITADNSSMSCTIDHTIHQTLAPVVYVTVLVVGFPANCLSLYFGYLQIKARNELGVYLCNLTVADLFYICSLPFWLQYVLQHDNWSHGDLSCQVCGILLYENIYISVGFLCCISVDRYLAVAHPFRFHQFRTLKAAVGVSVVIWAKELLTSIYFLMHEEVIEDENQHRVCFEHYPIQAWQRAINYYRFLVGFLFPICLLLASYQGILRAVRRSHGTQKSRKDQIQRLVLSTVVIFLACFLPYHVLLLVRSVWEASCDFAKGVFNAYHFSLLLTSFNCVADPVLYCFVSETTHRDLARLRGACLAFLTCSRTGRAREAYPLGAPEASGKSGAQGEEPELLTKLHPAFQTPNSPGSGGFPTGRLA

Tests used:
[1] = variants of: B1; assay: cAMP reporter score (Enrich2 score, wild type = 0); higher = more signal; HEK293T, FACS bins
[2] = variants of: B1; assay: surface expression score (Enrich2 score, wild type = 0); higher = more signal; HEK293T, FACS bins

MGNITADNSSMSCTIDHTIHQTLAPVVYVTVLVVGFPANCLSLYFGYLQIKARNELGVYLCNLTVADLFYICSLPFWLQYVLQHDNWSHGDLSCQVCGILLYENIYISVGFLCCISVDRYLAVAHPFRFHQFRTLKAAVGVSVVIWAKELLTSIYFLMHEEVIEDENQHRVCFEHYPIQAWQRAINYYRFLVGFLFPICLLLASYQGILRAVRRSHGTQKSRKDQIQRLVLSTVVQFLACFLPYHVLLLVRSVWEASCDFAKGVFNAYHFSLLLTSFNCVADPVLYCFVSETTHRDLARLRGACLAFLTCSRTGRAREAYPLGAPEASGKSGAQGEEPELLTKLHPAFQTPNSPGSGGFPTGRLA [I236Q] showed a cAMP reporter score ([1]; pH 5.5) of -1.52, a cAMP reporter score ([1]; pH 6, modulator: ogerin) of -0.656 and a cAMP reporter score ([1]; pH 6.5, modulator: ogerin) of -0.68. It also gave a surface expression score [2] of -1.73.

For MGNITADNSSMSCTIDHTIHQTLAPVVYVTVLVVGFPANCLSLYFGYLQIKARNELGVYLCNLTVADLFYICSLPFWLQYVLQHDNWSHGDLSCQVCGILLYENIYISVGFLCCISVDRYLAVAHPFRFHQFRTLKAAVGVSVVIWAKELLTSIYFLMHEEVIEDENQHRVCFEHYPIQAWQRAINYYRFLVGFLFPICLLLASYQGILRAVRRSHGTQKSRKDQIQRLVLSTVVNFLACFLPYHVLLLVRSVWEASCDFAKGVFNAYHFSLLLTSFNCVADPVLYCFVSETTHRDLARLRGACLAFLTCSRTGRAREAYPLGAPEASGKSGAQGEEPELLTKLHPAFQTPNSPGSGGFPTGRLA [I236N], the cAMP reporter score ([1]; pH 5.5) was -1.14, the cAMP reporter score ([1]; pH 6) was -1.89 and the surface expression score [2] was -2.9.

MGNITADNSSMSCTIDHTIHQTLAPVVYVTVLVVGFPANCLSLYFGYLQIKARNELGVYLCNLTVADLFYICSLPFWLQYVLQHDNWSHGDLSCQVCGILLYENIYISVGFLCCISVDRYLAVAHPFRFHQFRTLKAAVGVSVVIWAKELLTSIYFLMHEEVIEDENQHRVCFEHYPIQAWQRAINYYRFLVGFLFPICLLLASYQGILRAVRRSHGTQKSRKDQIQRLVLSTVVMFLACFLPYHVLLLVRSVWEASCDFAKGVFNAYHFSLLLTSFNCVADPVLYCFVSETTHRDLARLRGACLAFLTCSRTGRAREAYPLGAPEASGKSGAQGEEPELLTKLHPAFQTPNSPGSGGFPTGRLA [I236M] gave a cAMP reporter score ([1]; pH 5.5) of -0.336, a cAMP reporter score ([1]; pH 6) of 1.14 and a cAMP reporter score ([1]; pH 6, modulator: ogerin) of 0.061. It also gave a cAMP reporter score ([1]; pH 6.5, modulator: ogerin) of 1.92 and a surface expression score [2] of -2.76.

MGNITADNSSMSCTIDHTIHQTLAPVVYVTVLVVGFPANCLSLYFGYLQIKARNELGVYLCNLTVADLFYICSLPFWLQYVLQHDNWSHGDLSCQVCGILLYENIYISVGFLCCISVDRYLAVAHPFRFHQFRTLKAAVGVSVVIWAKELLTSIYFLMHEEVIEDENQHRVCFEHYPIQAWQRAINYYRFLVGFLFPICLLLASYQGILRAVRRSHGTQKSRKDQIQRLVLSTVVPFLACFLPYHVLLLVRSVWEASCDFAKGVFNAYHFSLLLTSFNCVADPVLYCFVSETTHRDLARLRGACLAFLTCSRTGRAREAYPLGAPEASGKSGAQGEEPELLTKLHPAFQTPNSPGSGGFPTGRLA [I236P] gave a cAMP reporter score ([1]; pH 5.5) of -0.943 and a cAMP reporter score ([1]; pH 6.5, modulator: ogerin) of -1.59.

Variant MGNITADNSSMSCTIDHTIHQTLAPVVYVTVLVVGFPANCLSLYFGYLQIKARNELGVYLCNLTVADLFYICSLPFWLQYVLQHDNWSHGDLSCQVCGILLYENIYISVGFLCCISVDRYLAVAHPFRFHQFRTLKAAVGVSVVIWAKELLTSIYFLMHEEVIEDENQHRVCFEHYPIQAWQRAINYYRFLVGFLFPICLLLASYQGILRAVRRSHGTQKSRKDQIQRLVLSTVVLFLACFLPYHVLLLVRSVWEASCDFAKGVFNAYHFSLLLTSFNCVADPVLYCFVSETTHRDLARLRGACLAFLTCSRTGRAREAYPLGAPEASGKSGAQGEEPELLTKLHPAFQTPNSPGSGGFPTGRLA [I236L] has a cAMP reporter score ([1]; pH 5.5) of 1.1, a cAMP reporter score ([1]; pH 6) of 1.03 and a cAMP reporter score ([1]; pH 6, modulator: ogerin) of 1.14. It also gave a cAMP reporter score ([1]; pH 6.5, modulator: ogerin) of 2.03 and a surface expression score [2] of 0.154.
